This is one part of the list. The list includes weakly bound sequences.
Biological target: MaxL homodimer (UniProt P61244)
Experiment: universal protein-binding microarray (PBM)
Settings: PBS-based mixture, 10 nM His-tagged protein dimer, 2% milk, 200 ng/uL BSA, 50 ng/uL salmon testes DNA, 0.02% TX-100; detection with Alexa 488 anti-His …; high values mean tight binding; most listed sequences are background and not binding sites; double strand, one strand shown

UniProt P61244, sequence (P61244 whole entry): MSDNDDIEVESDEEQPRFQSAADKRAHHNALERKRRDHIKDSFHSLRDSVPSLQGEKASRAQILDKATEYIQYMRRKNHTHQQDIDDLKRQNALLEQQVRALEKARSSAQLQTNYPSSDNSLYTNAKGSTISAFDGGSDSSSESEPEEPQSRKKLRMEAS

Sequence	binding signal (normalized occupancy)
CTTTCATC	0.0723
ACGTGTTC	0.104
CGGGGGCC	0.0732
GACTATCC	0.0773
GCGGCTGA	0.0676
ACAGGGTC	0.075
AGCAAACC	0.0757
GGAGCTGA	0.0681
CCTTGAAC	0.0747
ACTACTTG	0.0765
CTTATCTA	0.0803
AGTTTTTC	0.0708
ATTGAGAC	0.0715
GCGGGTCC	0.0754
CAGTGTCG	0.0688
ACTTATAT	0.085
ATCGCCAT	0.0747
AATCTACA	0.0768
AACTACTC	0.0738
TAACAGGA	0.0786
CGCGTGAA	0.105
CTGATGGA	0.0706
AACAACGT	0.084
ATAGCACC	0.0765
GGGGTGAC	0.084

Sequence	binding signal (normalized occupancy)
ATAGGGGG	0.0844
CTTTACCA	0.0764
ATCGGTAC	0.0728
CCCCCGAC	0.0816
GCGCTGCC	0.0709
TCACGTGA	0.19
ACCCATCT	0.0849
CGGACATA	0.0765
ACGATCAT	0.0798
GCCCGTCC	0.069
GGTTTATA	0.0783
CGTTATCA	0.0801
AATACCTG	0.0787
CGTTTGAC	0.0718
ATGGACTA	0.0826
AAGAATAA	0.0792
TAGAGCCA	0.0849
ACACGCCG	0.1
AGCATTAT	0.0832
AGCTTAAT	0.0701
CTTATATA	0.0781
CTAAGCCA	0.0744
CACGTGTA	0.536
ATGATTCG	0.0784
GACGATAC	0.0737

Sequence	binding signal (normalized occupancy)
CTTAACGA	0.0704
GCCCACAA	0.0736
GTCTGCGA	0.0694
AGTTAGTA	0.0757
TCATCACA	0.0891
GGCATCGA	0.0758
AGTAAGGC	0.0714
TACTTTGA	0.0757
AATACATT	0.0787
CCGTGGCG	0.0765
CCATAGAC	0.0788
ATCATTAA	0.0751
TATGCCAA	0.077
ACGTATTG	0.0779
CCTATTGC	0.0731
CCGCTATC	0.0727
CGGAGCCA	0.0696
GACAGGCA	0.0734
CGCACTCC	0.0746
ACGGCGGA	0.0709
ATTATCGC	0.0731
GCAGCGCA	0.0697
CATTTGAC	0.076
ATAACCGG	0.0746
CCCGCAAG	0.0687

Sequence	binding signal (normalized occupancy)
CAGTCAGC	0.0721
ATAATTCG	0.0765
CAGTATTA	0.0819
ATAGAGGC	0.075
CGAGGTTC	0.0748
ACCAGATA	0.0849
ATGGTACC	0.0782
CTCGCGTA	0.0788
CAGGTGTC	0.0839
GCGAATTA	0.0749
AGATCTCG	0.0813
CGATAACA	0.0816
AGAGGCGG	0.0671
GGCCATAC	0.0792
AGTGGTTA	0.0793
ATTGTACA	0.0858
CAGGTAGA	0.0758
AACCAGTT	0.0664
CCCCGCAG	0.072
ACTCGTAC	0.0749
AATAACTC	0.0816
CCCTCGAC	0.0726
GGTTTCAA	0.0726
TAAAGGGA	0.0701
CTACAATA	0.0785

Sequence	binding signal (normalized occupancy)
CTACTAAC	0.0757
TCCTACAA	0.0745
GATTTAGA	0.0724
TGATGACA	0.0816
TTACCGAA	0.0761
ACGCTAGA	0.081
GCAACTAC	0.0715
GTGGACTA	0.0767
CCTATGAA	0.0799
TGTCCACA	0.0864
ACCGCCAA	0.0725
GTCAGAGA	0.073
ACCTGAAC	0.0772
CAGATTGC	0.0722
ATATATTC	0.0816
ACCTTCAC	0.0808
GGCTTACC	0.07
ATGGATTC	0.0845
CCTCGTCG	0.0697
CATTGGTA	0.0757
CGGTCTGC	0.0748
GCACGTGC	0.834
CGAGGCCG	0.0716
GCGTTAAC	0.0794
AGGCCGAA	0.0669

Sequence	binding signal (normalized occupancy)
CCTTCACG	0.0942
CCAATCAG	0.0709
CATTAGCC	0.0772
ATTGTGCA	0.0762
GACCCGTA	0.0742
CAGACCTC	0.0736
AGGTGACG	0.075
CCGTTACC	0.0769
CGTTTCGC	0.0696
ACCACTTG	0.0746
AGTCCCCG	0.0708
CATACTAG	0.0857
GCGTTCGA	0.0731
GCTATTCC	0.0715
AGGATAAC	0.087
AATCCATC	0.0845
AACGCCCA	0.0768
CATTTAGG	0.077
TATACAAA	0.0773
CCAACGCG	0.0822
AAGCACAA	0.0749
CTCGACAG	0.0706
AGGCAATA	0.0822
AACCTGCC	0.0751
ATGGCCGA	0.0733

Sequence	binding signal (normalized occupancy)
CGTTTTAC	0.0742
TGTACGAA	0.0781
ACCCTAAC	0.0759
GTGATCGA	0.0805
CCGATCGA	0.0697
ACAAGATA	0.0784
AAATCGTG	0.0794
ATTACGTC	0.0787
AAAAGATC	0.0769
GACCGACC	0.0733
ATGACCCA	0.0834
TAATTCAA	0.0795
CTCAACCA	0.0735
ACACGCGC	0.112
AAACCTAG	0.0657
GAGCACCA	0.0776
CGGAGCCG	0.0643
GCACACGC	0.1
AACAGAGG	0.0695
CTAACCTA	0.0783
GCTTTCAA	0.0728
CTTCTATC	0.0768
CGAGCGAC	0.0714
ATCTACGG	0.0772
ATCCGGCA	0.0752

Sequence	binding signal (normalized occupancy)
ACTTACTA	0.0785
ACCCTACC	0.0802
AACTATGG	0.0773
CGCGTGAC	0.134
CCAGTCCC	0.0739
AATGATTA	0.0835
CATACTTA	0.0818
AGCTGGGA	0.0719
ATAAGCGA	0.0735
GAACCCCA	0.0774
AGTACATA	0.0792
AAAGCTCA	0.0682
ACGGGACC	0.0741
CAGGGTAC	0.0795
GGTAATCA	0.0791
AGCCTCAC	0.0774
ACTCGCTG	0.0691
CGAAATAC	0.0768
AGGGAGAA	0.0737
AGTCGCGG	0.0679
GGACTATA	0.0837
AATAGCTG	0.0716
CATGACCA	0.0957
ACATAAGG	0.079
CCTGACAG	0.0722

Sequence	binding signal (normalized occupancy)
CCTTGCGC	0.0714
GGATCTTA	0.0763
AAAATGCG	0.0782
ATAGAGCC	0.0762
CAACGTGG	0.154
TGTCGACA	0.0845
AATTCTTA	0.0759
CCGGGCTA	0.0703
AACGCGCT	0.0734
ACGCATAA	0.0877
ACCATAGA	0.0735
GCCGTGTA	0.0812
CGAGCAAC	0.07
CTGGTGCC	0.0726
TGAAGTAA	0.0798
GGTAGGGA	0.0763
ACCAAACA	0.0793
AGCACTCG	0.0699
AGGCGACC	0.0735
GTAGGCAA	0.0719
CTGCTGAA	0.0711
AGGTGCAC	0.0767
ATATGCCG	0.0773
AAACTACG	0.0745
CCCACTCG	0.0785

Sequence	binding signal (normalized occupancy)
ACGCTGAT	0.0886
GTAGCTAA	0.0702
GATATCAA	0.0763
AAAACCCG	0.075
CACCAATC	0.0737
AGCTGCAT	0.0762
GAGAAGAA	0.0736
GTACCGCA	0.0765
AGTACCAC	0.0902
GGCACGAA	0.0735
CTACCGTA	0.0719
ATACCGTC	0.071
CCGCTGCC	0.0707
CCCATCAG	0.078
AGAGAACG	0.0746
ATCGCTGA	0.0749
AACCCTCT	0.069
AGTTGAGG	0.0695
AACGAGAG	0.0727
ACCAATGC	0.0761
CCAAGAGC	0.0705
CATAAGCA	0.0814
TCGTCCAA	0.0685
CAACCGTC	0.075
ACGACACT	0.0774

Sequence	binding signal (normalized occupancy)
ACATAATG	0.0814
CTCCAGAA	0.0691
AGTGTCCG	0.07
CAAATTAC	0.0734
AGTGTTGC	0.0747
ACTACGCC	0.0707
GCGGCTTA	0.0718
AGTGTAGC	0.0754
GACGCGAC	0.0735
ACTCCGAG	0.0698
GTATAAAC	0.0779
AATTGGCG	0.08
CAGACTTC	0.0751
ATTGCTGC	0.0726
CGTACATA	0.0819
CGAAAGTC	0.074
CCTAGGCA	0.0685
AACAGTGG	0.071
CGAGGGTA	0.0799
CCAGCTAG	0.0671
TAGTTGGA	0.0742
CGACAGCG	0.0641
CTGAAGGA	0.068
AGGGACCC	0.0695
ACTCAGAG	0.0691

Sequence	binding signal (normalized occupancy)
TAGGTACA	0.0738
CGAGCAAG	0.0708
ACCCTCGT	0.0793
CGACTCCG	0.0659
GGCTGCAA	0.0669
CTGGGCAA	0.0686
TCCGGCGA	0.069
ACTGCGGA	0.0741
GCCTTAGC	0.068
CCTTGAGA	0.078
GCTACAAA	0.0741
GCGCCAAA	0.0715
GCCAAACC	0.0702
CAATTGGG	0.0733
GGCCGATA	0.0714
AGACGTAA	0.0714
CAAGGTGA	0.0747
AACCAATA	0.0723
GCCCGACC	0.0665
GCCCGAAC	0.0641
AATGACTA	0.077
ATAAATTC	0.0741
AGGAAGAT	0.0741
AGACGTGG	0.0819
AACTAAGG	0.0696

Sequence	binding signal (normalized occupancy)
CACTATAG	0.0785
AGTATAGC	0.0769
AATGGCAG	0.0712
GACCCAAA	0.071
CCTCACCC	0.0818
GCTCTGGA	0.0718
AGGAAATG	0.0748
ACAACGGA	0.073
GCCACCCC	0.0827
CCACATTC	0.0852
AGAAGATA	0.0794
GGGGGACC	0.0757
GCCGTCGA	0.0722
AGCCCTTA	0.0705
GATGGTCC	0.0777
AACAGAGT	0.073
TAATTCTA	0.0766
CCCATAGG	0.0735
ACAACCAT	0.0846
TCATGGAA	0.084
TGTTTTAA	0.0739
ATGCCCTA	0.0836
GAGACAGC	0.0726
ATGAAGCA	0.082
CCCTTAAG	0.0704

Sequence	binding signal (normalized occupancy)
ATTCAAGC	0.0775
GAAGCGGC	0.0715
ATATAAGG	0.0767
ACACCCCT	0.0822
TTAGCGAA	0.0758
AATGAAAT	0.0744
GGGTTGAC	0.0676
GTCGGCAC	0.0745
ACGGCGCC	0.0713
TTCTTAAA	0.0712
CCTAATAC	0.0788
AGCCAACG	0.0691
AGCGGTTC	0.0674
ACCACCCT	0.0783
ATCTGGCC	0.072
ATTGTATA	0.0832
TCAGCTCA	0.0679
CGACAAGC	0.0728
AGACGTGA	0.0821

— publication PMC4242493
